Measurements from PMC12136788.
The other results are listed elsewhere or left out.

T1: UNK ZnF1-3 (human, UniProt Q9C0B0 31-174)
T1 sequence: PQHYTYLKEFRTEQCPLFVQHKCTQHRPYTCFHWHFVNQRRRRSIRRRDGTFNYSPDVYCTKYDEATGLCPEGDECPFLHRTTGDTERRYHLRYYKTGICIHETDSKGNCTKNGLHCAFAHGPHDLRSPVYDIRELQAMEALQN

B1: 38075952_38076072_829_CDS_ENSMUSG00000026083_ENSMUST00000027252|mouse|control|control (ssRNA)
RNA: GGGAGUUCUACAGUCCGACGAUCUUUUUUCUGUCCUUUUCUGGACUGCAAAAAUUCAUCGGACUCACCACCACUUUCACCAGAGGAGUUUACUCUCGAACGUUCUUUACUUCUUUUGCUAUUGUCUUCAUCCUCUUCUGACCCCAACAGAGGAUUGAGCAUCA
B2: chr7:7679991:7679992:-_ENSG00000106399_ENST00000396682|hu_hu|hu_hu_hu_mus_False|98_98 (ssRNA)
RNA: GGGAGUUCUACAGUCCGACGAUCUGGGAUGAAUCUUUUCCAGCCUCCCCACGAAGCACACGGGCCGGUCGAUAUACUGUGGUAACAUGCUGGCGUUGACGCGCGCUUUGGGGAGCUGCAUUAUGUCCUCCAUGAUUCUGCCGCCAACAGAGGAUUGAGCAUCA
B3: chr11:18536319:18536320:-_ENSG00000074319_ENST00000251968|perfect_dup|motif|central (ssRNA)
RNA: GGGAGUUCUACAGUCCGACGAUCAAGAUAUAUCUUCCCAUUUGCAUCAACAUGCUUUCCUGUUUUAAUAGUCAUUGAACGGGUAGGCUUAACAAAACAGAUAGGGGGAUUAUAUGGGUAUGUGUCCAGUAGCCAUAGGCAUAUCAACAGAGGAUUGAGCAUCA
B4: chr4:95690885:95690886:+_ENSMUSG00000028572_ENSMUST00000156910|mus_mus|mus_mus_mus_hu_False|28_108 (ssRNA)
RNA: GGGAGUUCUACAGUCCGACGAUCUUUAUUUUUAGAAAAAUACCAUGCUAAAAUAUUUUCAAAGGCUUAUUUUAUUUUACCAGAAGUCACAGGCAAGCAGACACUACAAACAUACAAGAAAAUGAAACUCAACAAUAUAACUGUCAACAGAGGAUUGAGCAUCA
B5: 26221340_26223884_1027_CDS_ENSG00000221914_ENST00000315985|human|control|control (ssRNA)
RNA: GGGAGUUCUACAGUCCGACGAUCUAUGCAGUCAUUUUCAUACAGUGAACAGAGUUUACUUCUGAGGUAUUCAUGCACCUGGUAUGUUUCCACAGGCCUGUUUUCCAUAUUUAAGUCCCAAAUUUUGACUGACAAAUAGUCUCUCAACAGAGGAUUGAGCAUCA
B6: chr4:17845017:17845018:+_ENSG00000109805_ENST00000514176|hu_mus|hu_hu_hu_mus_False|78_78 (ssRNA)
RNA: GGGAGUUCUACAGUCCGACGAUCGCUCUCUUAACUUGUAUCUUCAUUAAGGAACUCGCAAGGUUAAAGUUUACUUUUCUGUAGCGCAGCUGUUUUGGCUCGUCUGGGUAAUCUCAUCUUCAUUUCUGAUGGUGGUUCAUGAUCCAACAGAGGAUUGAGCAUCA
B7: chr4:148551591:148551592:-_ENSMUSG00000063077_ENSMUST00000060537|mus_hu|mus_mus_mus_hu_False|8_18 (ssRNA)
RNA: GGGAGUUCUACAGUCCGACGAUCACCUGACAAAAUUAAAUAUCCCUGUAAAUUAGACAAUAAGCAGCAGGCAACAAAGUCUUUGCUUUGGAAUAUGUGCCAGGAAAAGUCAUCUUGUAGACCCCAAACACCUUUCAGUUCACACAACAGAGGAUUGAGCAUCA
B8: chr7:56126341:56126342:+_ENSG00000146731_ENST00000540286|hu_mus|hu_hu_hu_mus_True|18_98 (ssRNA)
RNA: GGGAGUUCUACAGUCCGACGAUCCAUGUUUCUCCUCUUAGCUCUGCGCAGAGCUACGAUCCCUUCUUUCGCAAGGGCAUCUAAGGAAAAGGGGUCAAUCCCCUUUUGAUUAAUAACAACAAAUCCUUUAUCUGAGUCACCACACAACAGAGGAUUGAGCAUCA
B9: chr6:84311021:84311022:-_ENSG00000065609_ENST00000520302|hu_mus|FALSE|FALSE (ssRNA)
RNA: GGGAGUUCUACAGUCCGACGAUCCCCAGGAGAAGCUGCAAAGGCAUCUCCAAAGAGAUCCACUUCCGUAGUGACAGCCGUCACAGCUGUGGUGGUCGAGGCAGAGGCUGAAGCAGGCUCAGUGGUUGUAGUAGGAGGGGAAGGCAACAGAGGAUUGAGCAUCA
B10: chr12:39756943:39756944:-_ENSG00000139116_ENST00000544797|hu_mus|hu_hu_hu_mus_False|88_88 (ssRNA)
RNA: GGGAGUUCUACAGUCCGACGAUCGGUUUGGCUGUUACCCCCAAGGGAAUCCUGUAGGAGUCUUGUCAGCUUAGAGUCUCUGUAAGGGACAUGGGUGGCUCUCUUGCUCUUGUCCCCCAAGGCGCUGAUUACAUUCCCAAGAGCCAACAGAGGAUUGAGCAUCA
B11: chr16:94664382:94664383:+_ENSMUSG00000040785_ENSMUST00000117648|mus_mus|FALSE|FALSE (ssRNA)
RNA: GGGAGUUCUACAGUCCGACGAUCUCCUGGUAUGGACUUCACAUCCUCAGACAGUGCUUCAGACUUUACAUCUGGUUGAAAUUCCCUAGCAGUUGGAUUUAGUGGUAGUUUAACUCGUAAAUAUUCUCCUGUUUUUGAAAUGUCCAACAGAGGAUUGAGCAUCA
B12: chr3:157717571:157717572:+_ENSMUSG00000063052_ENSMUST00000156597|mus_mus|motif|central (ssRNA)
RNA: GGGAGUUCUACAGUCCGACGAUCUCUUGAGUUCCUUUAGCUAUAAUUUCUCUUCGAAUGGUUCUUAGAGGAUUUCCUUCGGGUGCCAGGAAUUUCAAAUGAAGAUUUCCCAAUGAGCAGGGCAGACUACUAAUAUCAUUGUUGCAACAGAGGAUUGAGCAUCA
B13: chr11:119138191:119138192:+_ENSMUSG00000025579_ENSMUST00000026666|mus_hu|FALSE|FALSE (ssRNA)
RNA: GGGAGUUCUACAGUCCGACGAUCGCCGGUCUCGUUGGUGAUGAAAACCCCCCUCCGCAGACCCUCGUCGUAGGGCCUGUAGCUCCCGGCAGGGCCCGAGCUGCUGAUGGCAGGAUCCACGAUCAUCAUGUAGCGCCGGCCGCCCAACAGAGGAUUGAGCAUCA
B14: 26111430_26111550_622_CDS_ENSMUSG00000045039_ENSMUST00000128119|mouse|control|control (ssRNA)
RNA: GGGAGUUCUACAGUCCGACGAUCAGCCUCAAUGGGUGGGGGCCGGGUGCUCCCACUCAGACUAGCAAGCAGAGGGCCUUGGGGCGAGUCACCGUCAUACACAAAGAGGUAGUCAUAAGUGCACUCCGUGUCCAGGAAAAGGAACAACAGAGGAUUGAGCAUCA
B15: chr5:92386950:92386951:-_ENSMUSG00000029397_ENSMUST00000031345|mus_hu|FALSE|FALSE (ssRNA)
RNA: GGGAGUUCUACAGUCCGACGAUCCUGUUGGGCAUGUUGAAUUUUUUCACAGUUUAUGCACUGCACUUCCUUCACUUUAAAGCGAUCUAGUUGAUGAUCUUCAUUGUUAUCAUGACACAAGCGGCAAGUAUAAAGCUUGUCACACAACAGAGGAUUGAGCAUCA
B16: chr6:22256794:22256795:-_ENSMUSG00000029672_ENSMUST00000165576|mus_mus|FALSE|FALSE (ssRNA)
RNA: GGGAGUUCUACAGUCCGACGAUCCCUGUUCUCAAGCAACUUUACUUCAUACACAUUCAAAUAUAUCCAGGCCAUAUGAUACUACUAUGUUGAAUGGCAAAAACUUAAUUUUUAUAUGUUAAGAUGUAUCCAAAAAAAAAAAAACAACAGAGGAUUGAGCAUCA
B17: 56511178_56513202_519_CDS_ENSMUSG00000021024_ENSMUST00000021412|mouse|control|control (ssRNA)
RNA: GGGAGUUCUACAGUCCGACGAUCCUCUUCAUCGAUACCGAUUAAAAUCAUACAACAACCGAGUGGCCUCAUUUCAGCGUUCUGUGUGUAGACUUGAGAAAUAUCAGCAAUUCUUUUGCACAGCAUGUCCACAGGAAUUUCAUACAACAGAGGAUUGAGCAUCA
B18: chr7:157178285:157178286:+_ENSG00000105993_ENST00000429029|hu_mus|FALSE|FALSE (ssRNA)
RNA: GGGAGUUCUACAGUCCGACGAUCGAGUUACUUGUUAUCCAAGCGUAGCAGGUGCUCCUUACCAUUUAUUGUCAAGGACUUUAACUGCCCAUCUUCUUCAACUUCUACUCUUUCUUGACCGUUCUCCACAAUCCUCUUUGUCGUCAACAGAGGAUUGAGCAUCA
B19: chr17:48772226:48772227:-_ENSG00000154945_ENST00000285243|hu_mus|motif|central (ssRNA)
RNA: GGGAGUUCUACAGUCCGACGAUCUAAAAUUGAACAAUUUGUUUAUAAAAGCAACAGAUUCCAGAGUUAUGUAAAAACCCGGAUAAUUUUCAAAAUAACCUUUAUCUUUGAUACAAAAAUAAAGAUGCUAACUCCUUUAGUUCACAACAGAGGAUUGAGCAUCA
B20: chr15:40510687:40510688:+_ENSG00000156970_ENST00000287598|hu_mus|FALSE|FALSE (ssRNA)
RNA: GGGAGUUCUACAGUCCGACGAUCCCAGAGGAGUCCAUCCCAGAAGACAUGGAGGUGCUCCUUGAACAGGAGUAAGUGCGCUAGGUCUGCUAUACCCAACAGAUCUACAUGGUAGGGAGAAGAACAGUUAGCCAGGAUCUUUUGCAACAGAGGAUUGAGCAUCA
B21: chr7:149068622:149068623:-_ENSMUSG00000025139_ENSMUST00000001950|mus_hu|mus_mus_mus_hu_False|68_78 (ssRNA)
RNA: GGGAGUUCUACAGUCCGACGAUCGUGAGGCCUCUGAGUGUGGCUUGUGGUCUGUCCUGUCUGCAGUCUGCUGGUAACACGGAACAUACCAUCUAGAACGUUCCAGUCCCGCCUGACACCUUCAUUCCCAAUGGAGAAGAAAUCCAACAGAGGAUUGAGCAUCA
B22: 91658163_91658283_3640_CDS_ENSMUSG00000022961_ENSMUST00000114036|mouse|control|control (ssRNA)
RNA: GGGAGUUCUACAGUCCGACGAUCUGAAUAAUUAGCAGGUACUGCCAUAGGCUCUGAAAUCUCACUUUGACUCACAGGAGGCUCAGGCUGUGAUAGAGAUUCUCCAGUAGAUAAUGUCACCUCUGUAGACCAAGUAUUGUCAGCCAACAGAGGAUUGAGCAUCA

target: T1, UNK ZnF1-3; assay: nsRBNS (natural sequence RNA bind-n-seq); RBNS binding buffer (assumed for nsRBNS): 25 mM Tris pH 7.5, 150 mM KCl, 3 mM MgCl2, 0.01% Triton X-100, 500 ug/ml BSA, 20 U/ml SUPERase-In, 4 C; UNK is unkempt and MSI1 is Musashi-1; names of the RNAs are library labels; protein concentration not given here; high values mean tight binding

**Q.** B1 was tested. Which binding signal did it give?
**A.** 0.438 enrichment R

**Q.** Which binding signal does the source give for B2 here?
**A.** 0.511 enrichment R

**Q.** For B3, which binding signal is on record?
**A.** 0.798 enrichment R

**Q.** With B4 as the binder, how does the binding signal read?
**A.** 2.17 enrichment R

**Q.** With B5 as the binder, how does the binding signal read?
**A.** 0.717 enrichment R

**Q.** B6 was tested. Which binding signal did it give?
**A.** 0.422 enrichment R

**Q.** B7 was tested. Which binding signal did it give?
**A.** 1.61 enrichment R

**Q.** Which binding signal does the source give for B8 here?
**A.** 0.743 enrichment R

**Q.** With B9 as the binder, how does the binding signal read?
**A.** 1.38 enrichment R

**Q.** For B10, which binding signal is on record?
**A.** 0.864 enrichment R

**Q.** B11 was tested. Which binding signal did it give?
**A.** 0.665 enrichment R

**Q.** B12 was tested. Which binding signal did it give?
**A.** 1.31 enrichment R

**Q.** For B13, which binding signal is on record?
**A.** 0.811 enrichment R

**Q.** With B14 as the binder, how does the binding signal read?
**A.** 2.27 enrichment R

**Q.** Which binding signal does the source give for B15 here?
**A.** 0.438 enrichment R

**Q.** How did the binding signal turn out when B16 was run?
**A.** 1.35 enrichment R

**Q.** Which binding signal does the source give for B17 here?
**A.** 1.13 enrichment R

**Q.** B18 was tested. Which binding signal did it give?
**A.** 0.295 enrichment R

**Q.** B19 was tested. Which binding signal did it give?
**A.** 1.5 enrichment R

**Q.** With B20 as the binder, how does the binding signal read?
**A.** 0.594 enrichment R

**Q.** How did the binding signal turn out when B21 was run?
**A.** 0.779 enrichment R

**Q.** With B22 as the binder, how does the binding signal read?
**A.** 1.01 enrichment R
